Results published in PubChem BioAssay AID588579 (National Center for Advancing Translational Sciences (NCATS), 2011).
“And” between values parts separate entries of the source, which are not always exact repeats. Identical values can stand only once. In all, about 400,000 compounds went through this assay and about 2,200 (0.55%) were called active. This list was built around the results that the source calls inconclusive (neither active nor inactive); the mix of calls is not that of the screen. Calls come from the whole dose curve; as a rule, active = well fitted inhibition curve with a large enough effect; inconclusive = small, poorly fitted or top-dose-only effect, or another doubt; inactive = no such curve, though single readings can be large or run the other way. Where the call is inconclusive, the potency comes from a doubtful curve fit. Some compounds were tested as several samples or in several runs, with calls that do not always agree.

Target: DNA polymerase kappa (Homo sapiens) (UniProt Q9UBT6)
Experiment: qHTS for Inhibitors of Polymerase Kappa
Conditions: purified Pol kappa, fluorescent DNA synthesis assay, 10 min; series mostly up to 107 µM; activity, negative = inhibition: at the top concentration
Procedure, shortened: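 Inhibition of 10 nM Pol kappa is measured by a fluorescent read-out at 0 and 10 min following addition of 50 nM substrate (final), with a 15-min room-temperature compound preincubation.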
% is set by controls: 0 for no effect and ±100 for the full control effect; potency is the fitted concentration of half-maximal effect; tags give direction and shape of the fitted curve.

Chain of UniProt Q9UBT6 (Q9UBT6 whole entry, looked up): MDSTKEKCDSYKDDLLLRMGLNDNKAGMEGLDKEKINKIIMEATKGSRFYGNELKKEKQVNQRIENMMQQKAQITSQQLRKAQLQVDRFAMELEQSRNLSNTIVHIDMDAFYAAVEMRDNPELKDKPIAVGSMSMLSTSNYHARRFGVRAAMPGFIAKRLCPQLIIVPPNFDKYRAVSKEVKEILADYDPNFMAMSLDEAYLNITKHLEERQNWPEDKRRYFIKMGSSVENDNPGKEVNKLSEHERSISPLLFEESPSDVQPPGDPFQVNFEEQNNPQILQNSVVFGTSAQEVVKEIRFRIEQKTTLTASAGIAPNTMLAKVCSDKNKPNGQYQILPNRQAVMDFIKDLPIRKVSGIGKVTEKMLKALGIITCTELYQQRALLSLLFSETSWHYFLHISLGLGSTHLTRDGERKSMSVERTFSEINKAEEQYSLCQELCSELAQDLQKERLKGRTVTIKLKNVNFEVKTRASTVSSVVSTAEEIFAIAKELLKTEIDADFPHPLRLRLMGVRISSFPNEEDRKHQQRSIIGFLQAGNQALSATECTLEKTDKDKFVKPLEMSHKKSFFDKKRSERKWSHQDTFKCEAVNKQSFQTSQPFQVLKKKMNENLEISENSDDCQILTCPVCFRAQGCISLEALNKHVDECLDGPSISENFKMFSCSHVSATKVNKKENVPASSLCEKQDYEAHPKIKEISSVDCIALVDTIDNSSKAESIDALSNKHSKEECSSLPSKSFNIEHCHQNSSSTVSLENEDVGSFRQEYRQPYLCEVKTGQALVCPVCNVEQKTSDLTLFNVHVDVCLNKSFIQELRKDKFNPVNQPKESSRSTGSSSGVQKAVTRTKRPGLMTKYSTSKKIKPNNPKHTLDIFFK

activity, negative = inhibition, inactive:
CCOC(=O)c1nn(C)c2[nH]c(=O)n(C)c(=O)c12 -1.51%, COc1ccccc1C1C(C(C)=O)=C(O)C(=O)N1c1ccc(O)cc1 (configuration not stated) 6.54%, O=S(=O)(NCC(c1cccnc1)N1CCN(c2ccc(F)cc2)CC1)c1ccccc1 (configuration not stated) -9.11%, COc1ccc(OC)c(NC(=O)c2cnn(-c3ccc(C)cc3)c2C2CCNCC2)c1 -22.3%, CCN(C(=O)C(C)N1C(=O)/C(=C/c2cccs2)SC1=S)C1CCS(=O)(=O)C1 (configuration not stated) -6.71%, COc1ccc(OC)c(NC(=O)c2cccn2-c2nnc(N3CCCCC3)s2)c1 -5.11%, COc1cc(C)c(C)cc1S(=O)(=O)Nc1cccc(-c2ccc(N3CCOCC3)nn2)c1 -6.76% [at 60.1 µM], COc1ccc(CC(=O)N2CCc3cc(OC)c(OC)cc3C2COc2ccc(OC)cc2)cc1 (configuration not stated) -4.75% [at 60.1 µM], C=C(C(=O)O)C1CCC2(C)CCCC(C)(O)C2C1 (configuration not stated) -30.3%, N#C/C(=C/c1cn[nH]c1-c1cccc(Br)c1)C(=O)O 7.47%, COc1cc2c(cc1OC)/C(=C/c1ccc(Cl)cc1)C(=O)OC2 -5.71%, Cc1ccccc1N1C(=O)c2cc(N)ccc2N/C1=C\F 1.57% [at 19.4 µM], CCOc1cc(OCC)c(C(=O)CCC(=O)O)cc1OCC 6.93% [at 19.4 µM], O=S(=O)(c1ccccc1Br)N1CCN(c2nc(-c3cccs3)nc3ccccc23)CC1 11.8%, CCn1cc(C(=O)O)c(=O)c2cc(F)c(N3CCN(C(=S)Nc4ccc(OC)cc4)CC3)cc21 1.35%, O=Cc1ccccc1OCCOc1ccccc1C=O -2.06%, COc1cccc(-c2nccc(NC3CCNCC3)n2)c1 -1.45% [at 60.1 µM], CCOC(=O)C(C)Oc1ccc(NC(=O)C(Cl)Cl)cc1 (configuration not stated) -6.2%

Potency, active:
Cc1cc(NC(=O)Cc2cccs2)no1 22.4 µM, Cc1ccc(C(=O)O)cc1N1C(=O)c2cccc3c([N+](=O)[O-])ccc(c23)C1=O 39.8 µM, COc1cc(-c2ccc(Nc3ccccc3C(=O)O)c(OC)c2)ccc1Nc1ccccc1C(=O)O 31.6 µM, COC(=O)C/C=N/N=C1/NC(=O)/C(=C/C(=O)O)S1 44.7 µM, COc1cc(C)c2c(c1C=O)Oc1c(c(C)c(O)c3c1C(O)OC3=O)OC2=O (configuration not stated) 35.5 µM and 22.4 µM, O=C(CCl)N1N=C(c2ccco2)CC1c1ccco1 (configuration not stated) 22.4 µM, C=C(C)C(=O)Nc1cccc(C2=NOC3(C2)C[C@@H](C(N)=O)N(C(=O)CCCCC)C3)c1 (some centres not stated) 7.94 µM, Oc1ccc(/C=C/c2cc(O)cc(O)c2)cc1 14.1 µM, CCCCC[C@H](O)/C=C/C1=C(CCCCCCC(=O)O)C(=O)CC1 50.1 µM

Potency, inconclusive:
CCCCCCCCCCCCCCC[C@H](O)[C@H](N)CO 15.8 µM [inhibitor, single point] and 26.7 µM [inhibitor, single point], CC(C)C(CCNC(=O)CC(Cc1ccccc1)c1ccco1)c1ccco1 (configuration not stated) 79.4 µM [inhibitor, single point], COc1ccc(NC(=S)NC(=O)c2ccc3c(c2)OCCO3)cc1 100 µM [inhibitor, single point], COc1cc(/C=C2\C(=N)N3N=C(S(C)(=O)=O)SC3=NC2=O)ccc1OS(=O)(=O)c1ccc(C)cc1 89.1 µM [inhibitor, single point], COc1ccc(OC)c(CCNC(=O)C2CCN(c3nnc(-n4cccc4)s3)CC2)c1 89.1 µM [inhibitor, single point], O=C(COC(=O)c1ccc([N+](=O)[O-])o1)NC12CC3CC(CC(C3)C1)C2 79.4 µM [inhibitor, partial curve, poor fit], CCc1cccc(C)c1NC(=O)c1cccc(C(=O)Nc2c(C)cccc2CC)c1 100 µM [inhibitor, single point], COCC1CCN(Cc2c(C(=O)N3CCc4ccccc4C3)nc3ccc(Cl)cn23)C1 (configuration not stated) 89.1 µM [inhibitor, single point], OCCN1CCN(c2ncnc3nc[nH]c23)CC1 79.4 µM [inhibitor, partial curve], CCN(CC)c1nc(N)c2c(N)n(-c3ccccc3C)c(=S)c(C#N)c2c1C#N 89.1 µM [inhibitor, single point], O=[N+]([O-])c1cccc(/C=N/NS(=O)(=O)c2ccccc2)c1 89.1 µM [inhibitor, single point], CCOc1ccccc1NC(=O)CCn1nc(C)c(S(=O)(=O)N2CCCCC2)c1C 7.08 µM [inhibitor, single point], Cc1ccc(Sc2ccc(/C=C3/C(=O)NN(c4ccccc4)C3=O)o2)cc1 79.4 µM [inhibitor, single point], O=C1CCCC2=C1C(c1ccc(O)c(O)c1)c1c(ccc3ncccc13)N2 (configuration not stated) 56.2 µM [inhibitor, partial curve, poor fit], CCOC(=O)/C(=C/c1ccc(N2CCC(c3ccccc3)=N2)cc1)C(C)=O 39.8 µM [inhibitor, single point], CC[C@H](C)[C@H](NC(=O)[C@H](Cc1cnc[nH]1)NC(=O)[C@@H](NC(=O)[C@H](CCCNC(=N)N)NC(=O)[C@H](CCCCN)NC(=O)[C@H](CCCNC(=N)N)NC(=O)[C@H](CCCCN)NC(=O)[C@@H](N)CC(N)=O)[C@@H](C)CC)C(=O)NCC(=O)N1CCC[C@H]1C(=O)NCC(=O)N[C@@H](CCCNC(=N)N)C(=O)N[C@@H](C)C(=O)N[C@@H](Cc1ccccc1)C(=O)N[C@@H](Cc1ccc(O)cc1)C(=O)N[C@H](C(=O)N[C@H](C(=O)N[C@@H](CCCCN)C(=O)N[C@@H](CC(N)=O)C(=O)N[C@H](C(=O)N[C@H](C(=O)NCC(=O)N[C@H](C(=O)N[C@H](C(=O)N[C@@H](CS)C(=O)O)[C@@H](C)CC)[C@@H](C)O)[C@@H](C)CC)[C@@H](C)CC)[C@@H](C)O)[C@@H](C)O 37.7 µM [inhibitor, single point], Cc1ccc(S(=O)(=O)Nc2ccccc2-c2ccccc2NS(=O)(=O)c2ccc(C)cc2)cc1 79.4 µM [inhibitor, partial curve, poor fit], C[C@@H]1C(c2cccc(Cl)c2)=NN(c2ccccc2)[C@H]1C(=O)N1CCOC1=O 50.1 µM [inhibitor, partial curve, poor fit], Cc1cc(NS(=O)(=O)c2ccc(NC(=O)COc3ccccc3[N+](=O)[O-])cc2)no1 89.1 µM [inhibitor, single point], O=C1NC(=Nc2ccc(Cl)cc2)/C(=C/c2ccco2)S1 89.1 µM [inhibitor, partial curve, poor fit], O=C(N/N=C/c1cccc([N+](=O)[O-])c1)c1ccc(Br)cc1 89.1 µM [inhibitor, single point], CCCCCCCCCCCCCCC(C(=O)O)C(O)(CC(=O)OC)C(=O)O (configuration not stated) 39.8 µM [inhibitor, single point], Cc1cc(C(=O)N/N=C2\CC(=O)c3ccccc32)c(C)n1-c1ccc(F)cc1 100 µM [inhibitor, single point], CC(/C=C/C1(O)C(C)CC(=O)CC1(C)C)OC1OC(CO)C(O)C(O)C1O (configuration not stated) 79.4 µM [inhibitor, single point], O=C(CN1CCN(c2ccccc2F)CC1)c1ccc(O)c(O)c1 56.2 µM [inhibitor, partial curve, poor fit], O=C(CNC(=O)c1cccc(OC(F)F)c1)OCc1cc(=O)n2cc(Br)ccc2n1 89.1 µM [inhibitor, single point], COc1cc(/C=C2\SC(=S)N(NC(=O)c3ccccc3O)C2=O)ccc1O 89.1 µM [inhibitor, single point], COC(=O)[C@@H]1[C@@H]2C[C@H]3c4[nH]c5ccccc5c4CCN3C[C@@H]2CC[C@@H]1O 1.12 µM [inhibitor, full curve, poor fit], O=C(O)COc1ccc(/C=C/c2ccc3cccc([N+](=O)[O-])c3n2)cc1 79.4 µM [inhibitor, single point], CCN(CC)CCNC(=O)c1c(C)[nH]c(/C=C2\C(=O)Nc3ccc(F)cc32)c1C 13.4 µM [inhibitor, partial curve, poor fit], CCCc1c(-c2ccc(O)cc2)nn(-c2ccc(O)cc2)c1-c1ccc(O)cc1 2.51 µM [inhibitor, partial curve, poor fit], Cc1cccc(N2CC(C(=O)Nc3cccc(S(=O)(=O)N4CCCCC4)c3)CC2=O)c1C (configuration not stated) 89.1 µM [inhibitor, partial curve, poor fit], O=C(c1ccc2c(=O)n(Cc3ccco3)c(=S)[nH]c2c1)N1CCN(Cc2ccc3c(c2)OCO3)CC1 79.4 µM [inhibitor, partial curve, poor fit], Cn1cccc1CC(=O)NNC(=S)Nc1ccc(F)cc1 100 µM [inhibitor, single point], O=C(O)c1ccc(Cl)c(S(=O)(=O)Nc2ccc3[nH]c(=O)[nH]c3c2)c1 56.2 µM [inhibitor, partial curve, poor fit]
